Paper PMC7819943, “Rice protein-binding microarrays: a tool to detect cis-acting elements near promoter regions in rice”
Some of the results follow.

target: T1, OsWOX13 (Oryza sativa, UniProt Q5QMM3 1-267); test: protein-binding microarray (RPBM); PBS, 2% BSA, 51.3 ng/ul salmon testes DNA, 50 uM zinc acetate, 200 nM TF, 25 C, 1 h; high values mean tight binding; details: protein: recombinant; tags: N-terminal polyhistidine and DsRed monomer fusion (pET32a); label: CyDye5-dUTP incorporated in the synthesized complementary strand; 3' TTTTT single-stranded linker to array surface; dsDNA, one strand shown
T1 sequence: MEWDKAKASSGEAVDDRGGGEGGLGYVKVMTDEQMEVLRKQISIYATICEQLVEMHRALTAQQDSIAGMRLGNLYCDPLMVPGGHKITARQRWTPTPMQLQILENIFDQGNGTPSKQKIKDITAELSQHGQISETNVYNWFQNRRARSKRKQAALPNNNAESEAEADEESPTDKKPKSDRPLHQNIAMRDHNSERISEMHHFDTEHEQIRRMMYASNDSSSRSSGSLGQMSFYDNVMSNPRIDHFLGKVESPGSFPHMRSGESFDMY
Method in brief: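 Transcription factors were made in E. coli BL21-CodonPlus as N-terminal fusions to a polyhistidine tag and DsRed, then purified on Ni–NTA. After primer extension with Cy5-dUTP and blocking with 2% BSA, a custom Agilent array was exposed for 1 h at 25 °C to 200 nM protein in PBS, 2% BSA, salmon testes DNA and 50 µM zinc acetate. Washed arrays were scanned on an Axon 4000B, and the binding signal is per-feature fluorescence intensity in arbitrary units.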

| Sequence | binding signal |
| --- | --- |
| TAAAATTAAGCTCCAAATAAACTATATAAAATTATGTATTCGGAGTCACCTAGTGCAG | 4090 fluorescence intensity (a.u.) |
| GAGATCTATTGATTGATTTTGAAGCAGAGGAGGAGCAGAGCGGAGTCACCTAGTGCAG | 26300 fluorescence intensity (a.u.) |
| GATGATTAACGAGTCACTGTTACTACTACTTTCCCACCCTCGGAGTCACCTAGTGCAG | 41200 fluorescence intensity (a.u.) |
| TTGATTTAAAGGATTGAAGCTTTCCAAATCCTATAAAATTCGGAGTCACCTAGTGCAG | 5970 fluorescence intensity (a.u.) |
| CGAGATAAATCACGGTAATCACAGCAACAGCAACAGCAACCGGAGTCACCTAGTGCAG | 10400 fluorescence intensity (a.u.) |
| TAATACTATTTGATTAATCATGCGTTCATCCACCACTCCACGGAGTCACCTAGTGCAG | 11100 fluorescence intensity (a.u.) |
| GTAACTGAGTCAATCCAGCAACGCATTGACCATATGAGCTCGGAGTCACCTAGTGCAG | 4780 fluorescence intensity (a.u.) |
| TTTTATAATGATACTTAATTAATCATGTGCTAATAATCACCGGAGTCACCTAGTGCAG | 9330 fluorescence intensity (a.u.) |
| ATATATATATATATATATATATATATAAAACTGGATATAACGGAGTCACCTAGTGCAG | 15900 fluorescence intensity (a.u.) |
| ATTAAATTTTAAAATTTAATTTTAAATTGATTTTGATATTCGGAGTCACCTAGTGCAG | 42600 fluorescence intensity (a.u.) |
| AAATATAAATAATTTTGGATGGATGAGACGTATCCTAATTCGGAGTCACCTAGTGCAG | 3240 fluorescence intensity (a.u.) |
| TCTCCCTGATTGGTGGTGTTTGTTTGAAAAGAAAGTTTATCGGAGTCACCTAGTGCAG | 24100 fluorescence intensity (a.u.) |
| GGGGATTGATTCCTTCCAAATCAAACCACCAAACCATCTTCGGAGTCACCTAGTGCAG | 25600 fluorescence intensity (a.u.) |
| AATTGATTGTGTCACAGTATATATTATAGTGAGGGGTGGGCGGAGTCACCTAGTGCAG | 24500 fluorescence intensity (a.u.) |
| ATGAAATTGTGTAACTTCCTGCTGCCTATTCCATACAAATCGGAGTCACCTAGTGCAG | 3250 fluorescence intensity (a.u.) |
| AATAATTAAACAGTTTTGTCTTGACATATATACTAGCATACGGAGTCACCTAGTGCAG | 34400 fluorescence intensity (a.u.) |
| AAATGATTTTAACATGTGGGATAAGCAAAGGGAATGATTTCGGAGTCACCTAGTGCAG | 6840 fluorescence intensity (a.u.) |
| TGATAGTGTCAATCACCGGCCGGCGAAATCTCTTTGCCGGCGGAGTCACCTAGTGCAG | 17900 fluorescence intensity (a.u.) |
| CTTTGATTATGCCAAGAAGAACTCCGATTATATACTACTCCGGAGTCACCTAGTGCAG | 15500 fluorescence intensity (a.u.) |
| CAGAAATTTGTAATTCATAAATAAGAAATCGTACCAGCTACGGAGTCACCTAGTGCAG | 9880 fluorescence intensity (a.u.) |
| AATAATAAACCGAATACTGATTTGGTTCCGGAACCCAAACCGGAGTCACCTAGTGCAG | 3160 fluorescence intensity (a.u.) |

| Sequence | binding signal |
| --- | --- |
| AATCAATCTGGTGGTCCAGTTAAAGGTTTACAGGCAGGTGCGGAGTCACCTAGTGCAG | 5790 fluorescence intensity (a.u.) |
| GTTTGGATTTGATTGGAGATTCGTGCGCGTGTAGAATAGACGGAGTCACCTAGTGCAG | 25100 fluorescence intensity (a.u.) |
| TTCATGCGTAATTGCAATCTTATGCTGGTAAGATGCATGACGGAGTCACCTAGTGCAG | 23300 fluorescence intensity (a.u.) |
| TGGTGTAGGGTTATGATTGGATGAGTAGTGGAGGTAGGTACGGAGTCACCTAGTGCAG | 8550 fluorescence intensity (a.u.) |
| AGAGATTGTACTGACGAAAATCAATCGTAATCAGAACAGCCGGAGTCACCTAGTGCAG | 11000 fluorescence intensity (a.u.) |
| TACACGAGATTGGAGGCACTAGGCCTCAGTACATGGCACGCGGAGTCACCTAGTGCAG | 3870 fluorescence intensity (a.u.) |
| GTCAAATCATAAATTTCGAGCCCCTGGCCTAGCTGCAGCGCGGAGTCACCTAGTGCAG | 6270 fluorescence intensity (a.u.) |
| CCCCTAATTCTATCATCACCAGTGTATTCCCTTCATCAAACGGAGTCACCTAGTGCAG | 5420 fluorescence intensity (a.u.) |
| ATAATTAAACATCAGAGTTGATTAGTATTTATCATTAAACCGGAGTCACCTAGTGCAG | 24100 fluorescence intensity (a.u.) |
| CCCCAAGAGTCAAAATCCAAATCAATTAAGATAAGGGTTCCGGAGTCACCTAGTGCAG | 3580 fluorescence intensity (a.u.) |
| ACAAAATGAATTGGAAATCAGAAATTAGGACTTCAGCTTTCGGAGTCACCTAGTGCAG | 9050 fluorescence intensity (a.u.) |
| TCCATAATTAGCAGCTGATTACTGTAGTATTACTGTAGCACGGAGTCACCTAGTGCAG | 60800 fluorescence intensity (a.u.) |
| ATATTTATAATTAGTGTCCAAAGATCTGATGTGATAGGGACGGAGTCACCTAGTGCAG | 6990 fluorescence intensity (a.u.) |
| ACAAATAAATCTGGATTGGATTGTGGAAATGATAAGAACACGGAGTCACCTAGTGCAG | 5800 fluorescence intensity (a.u.) |
| GTTTGACATGTACACTGTAATTGATTTTCGTCTCTGTTCGCGGAGTCACCTAGTGCAG | 26400 fluorescence intensity (a.u.) |
| TCTTGCTGGTACCAATTAACATGGGTATGTTTAATTTGCTCGGAGTCACCTAGTGCAG | 3470 fluorescence intensity (a.u.) |
| AAATTAGCTAATACTTAATCAATCATGTGCTAATGGACAGCGGAGTCACCTAGTGCAG | 13100 fluorescence intensity (a.u.) |
| AAAGGTTGATAGACTCGCGAACGGAAATAAAGGGGTTGTTCGGAGTCACCTAGTGCAG | 11900 fluorescence intensity (a.u.) |
| AAATTTTGACATAATTACCTATCATGTAACACCAAATGAACGGAGTCACCTAGTGCAG | 21800 fluorescence intensity (a.u.) |
| AAAACACCAAATTAGTTTTATTAAAACTAACTTTCAAATACGGAGTCACCTAGTGCAG | 4390 fluorescence intensity (a.u.) |
| ACAACATTACCCATTAACATGTGATTAGTTAAATAGTAGCCGGAGTCACCTAGTGCAG | 8010 fluorescence intensity (a.u.) |
